# From PubChem BioAssay AID360 (National Center for Advancing Translational Sciences (NCATS), 2006)
# Out of some 48,000 compounds screened, about 550 (1.1%) were called active. Not shown: some 4% with an inconclusive outcome. Rule as the data show it: active = potency below about 15 µM; inconclusive = mostly about 16 µM to 33 µM; inactive = weaker than that. The list shows a part of the results.
# Target: Lysosomal acid glucosylceramidase (Homo sapiens) (UniProt P04062)
# Test: Glucocerebrosidase;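 also: the screen sought inhibitors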
# Conditions: purified enzyme, resorufin glucoside fluorescence (screen aimed at inhibitors), 20 min; series mostly up to 77 µM
# How it was run: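 Wild-type enzyme at 0.2 nM final in 50mM citric acid/KH2PO4, 10mM sodium taurocholate, 0.01% tween-20, pH 5.9, with resorufin beta-D-glucopyranoside at 30 uM final. Compounds titrated, 20 min at RT, red fluorescence read; AC50 from titration.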
# Potency is read from the fitted curve at half-maximal effect.
# Sequence of UniProt P04062 (P04062 whole entry, looked up): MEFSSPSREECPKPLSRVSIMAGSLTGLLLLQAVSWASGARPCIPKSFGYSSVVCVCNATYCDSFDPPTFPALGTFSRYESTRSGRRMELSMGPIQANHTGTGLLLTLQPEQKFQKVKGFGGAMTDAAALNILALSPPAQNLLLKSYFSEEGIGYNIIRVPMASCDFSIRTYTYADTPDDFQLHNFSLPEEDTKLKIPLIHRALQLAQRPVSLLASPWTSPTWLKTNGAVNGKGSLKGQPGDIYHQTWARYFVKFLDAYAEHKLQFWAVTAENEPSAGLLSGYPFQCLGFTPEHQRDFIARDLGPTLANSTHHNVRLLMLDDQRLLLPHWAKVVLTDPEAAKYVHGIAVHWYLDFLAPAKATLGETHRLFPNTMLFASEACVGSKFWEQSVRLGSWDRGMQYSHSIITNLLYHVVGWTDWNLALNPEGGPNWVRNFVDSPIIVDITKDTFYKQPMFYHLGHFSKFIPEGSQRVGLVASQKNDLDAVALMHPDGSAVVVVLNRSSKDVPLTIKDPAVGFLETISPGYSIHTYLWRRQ
row,SMILES,Potency
1,CCOC(=O)CSC1=C(C#N)C(c2ccccc2C)C2=C(CCCC2=O)N1 (stereo not given),inactive: > 76.9 µM
2,O=c1c2cc(N3CCOCC3)ccc2[nH]c(=S)n1CC1CCCO1 (stereo not given),inactive: > 76.9 µM
3,CC(C)NC(=O)NC1C2CC3CC(C2)CC1C3 (stereo not given),inactive: > 76.9 µM
4,COc1cc2c(C(=O)NCCCN3CCN(c4cccc(Cl)c4)CC3)cn(C)c(=O)c2cc1OC,inactive: > 76.9 µM
5,CCOc1ccc(NC(=O)COc2nsnc2N2CCCCC2)cc1,inactive: > 76.9 µM
6,CC1=NCCN1S(=O)(=O)c1cc(Cl)ccc1Cl,inactive: > 76.9 µM
7,Cc1cc(C)n(C(=O)CCCCCC(=O)n2nc(C)cc2C)n1,inactive: > 76.9 µM
8,Cc1ccc(-c2nnn(CC(=O)N(c3ccccc3)C(C(=O)NC3CCCC3)c3ccco3)n2)o1 (stereo not given),inactive: > 76.9 µM
9,O=C(CSc1nnc(CNc2ccc(F)cc2)o1)N1CCCc2ccccc21,inactive: > 76.9 µM
10,Cc1cc(N(C)C)c(C#N)c(=O)[nH]1,inactive: > 76.9 µM
11,Cc1cc(OCC(=O)O)c2ccccc2n1,inactive: > 76.9 µM
12,COc1ccc(-c2noc(CN(C(=O)c3c(-c4ccccc4Cl)noc3C)C(C)C)n2)cc1,inactive: > 76.9 µM
13,CCc1ccccc1N(C(=O)CCC(=O)Nc1cc(C)on1)C(C(=O)NC1CCCC1)c1ccco1 (stereo not given),inactive: > 76.9 µM
14,CCOC(=O)C1CCCN(CCC(C)c2ccccc2)C1 (stereo not given),inactive: > 76.9 µM
15,COC(=O)c1ccccc1S(=O)(=O)N(Cc1cc2cc3c(cc2[nH]c1=O)OCO3)C1CCCCC1,inactive: > 76.9 µM
16,COc1ccc(-n2c(Cn3nnc4ccccc43)nnc2SCC(=O)O)cc1,inactive: > 76.9 µM
17,CCCS(=O)(=O)C(=C1Nc2ccccc2N1)S(=O)(=O)CCC,inactive: > 76.9 µM
18,CCCCOC(=O)C1=C(C)Nc2ncnn2C1c1cc(OC)c(OC)cc1OC (stereo not given),inactive: > 76.9 µM
19,Cn1c(COc2ccc3ccccc3c2)nnc1SCC(N)=O,inactive: > 76.9 µM
20,COc1cc(-c2noc(C3CCCN(S(=O)(=O)c4cccc(Cl)c4)C3)n2)cc(OC)c1OC (stereo not given),inactive: > 76.9 µM
21,C=CCc1c(C)nn(CC(=O)O)c1-c1ccccc1,inactive: > 76.9 µM
22,CS(=O)(=O)N(CC(=O)NCCSCc1cccc(Cl)c1)c1ccc2c(c1)OCO2,inactive: > 76.9 µM
23,O=C(CN1CCN(S(=O)(=O)c2ccc(F)cc2)CC1)Nc1ccc2c(c1)OCO2,inactive: > 76.9 µM

row,SMILES,Potency
1,COc1ccc(-c2cc(=O)c3ccccc3s2)cc1,inactive: > 76.9 µM
2,Nn1c(SCC(=O)N2CCCc3ccccc32)nnc1-c1ccccc1,inactive: > 76.9 µM
3,COc1ccc(OC)c(S(=O)(=O)NC2CCN(Cc3ccccc3)CC2)c1,inactive: > 76.9 µM
4,C(=NC12CN3CN(CN(C3)C1)C2)c1ccc2c(c1)OCO2,inactive: > 76.9 µM
5,c1ccc(-c2nc3cc(Oc4ccc5oc(-c6ccccn6)nc5c4)ccc3o2)nc1,inactive: > 76.9 µM
6,Cc1nnc(SCC(=O)NC2CC2)n1CCc1ccccc1,inactive: > 76.9 µM
7,N#CCCS(=O)(=O)c1nnnn1-c1ccccc1,inactive: > 76.9 µM
8,Cc1ccc(C(=O)CC2(O)C(=O)N(Cc3ccc4c(c3)OCO4)c3ccccc32)cc1 (stereo not given),inactive: > 76.9 µM
9,CCc1ccc(OCC(=O)N(C)C2CCS(=O)(=O)C2)cc1 (stereo not given),inactive: > 76.9 µM
10,Cc1cccc(CC2CC(=O)N(c3ncccn3)C2=O)c1 (stereo not given),inactive: > 76.9 µM
11,Cc1ccc(OCC(=O)N(Cc2ccc(N(C)C)cc2)C2CCS(=O)(=O)C2)cc1 (stereo not given),inactive: > 76.9 µM
12,Cc1sc2ncn3cnnc3c2c1C,inactive: > 76.9 µM
13,CCCCn1nnc(NC(=O)c2ccc(-c3ccccc3)cc2)n1,inactive: > 76.9 µM
14,CCS(=O)(=O)Nc1c(C(=O)O)[nH]c2ccccc12,inactive: > 76.9 µM
15,Cn1c(=O)[nH]c(=O)c2c1nc(OC(=O)c1ccccc1)n2CC(O)COc1ccccc1 (stereo not given),inactive: > 76.9 µM
16,C=CCc1ccccc1OCCn1ccnc1,inactive: > 76.9 µM
17,CC1CCN(CC(=O)Nc2ccccc2C#N)CC1,inactive: > 76.9 µM
18,CSCCC(NC(=O)c1ccc(=O)n(C)n1)c1nc2ccccc2[nH]1 (stereo not given),inactive: > 76.9 µM
19,CCCCCOC(=O)CSc1nnc(-c2ccccc2)c(=O)[nH]1,inactive: > 76.9 µM
20,O=C(CSc1nnc(CN2CCOCC2)n1-c1ccc(Cl)cc1)N1CCc2ccccc21,inactive: > 76.9 µM
21,Cc1ccc(C(C(=O)NC2CCCCC2)N(CCC(C)C)C(=O)CNC(=O)c2ccco2)o1 (stereo not given),inactive: > 76.9 µM
22,Cc1ccc(-c2ccc(=O)n(CC(=O)NCCN3CCCCC3C)n2)cc1 (stereo not given),inactive: > 76.9 µM
23,C[C@H](NC(=O)NCc1cccs1)C(=O)O,inactive: > 76.9 µM

row,SMILES,Potency
1,O=C(CSc1nnc(CNC(=O)c2ccccc2F)o1)Nc1ccc2c(c1)OCCO2,inactive: > 76.9 µM
2,Cc1ccc(C(=O)N2CCOCC2)cc1S(=O)(=O)Nc1cccc(C)c1C,inactive: > 76.9 µM
3,O=C(CN1CCOCC1)Nc1scc(-c2ccccc2)c1C(=O)N1CCOCC1,inactive: > 76.9 µM
4,O=C(CN(CCc1ccccc1)C(=O)CNS(=O)(=O)c1ccccc1)NCC1CCCO1 (stereo not given),inactive: > 76.9 µM
5,CC(C)(C)C1CCc2onc(C(=O)NC3CCCC3)c2C1 (stereo not given),inactive: > 76.9 µM
6,CSCCC1NC(=O)NC1=O (stereo not given),inactive: > 76.9 µM
7,Cc1cc(OCC(=O)N2CCCC2)cc(C)c1Cl,inactive: > 76.9 µM
8,O=C1CC(N2CCN(C/C=C/c3ccccc3)CC2)C(=O)N1Cc1ccc(N2CCCC2=O)cc1 (stereo not given),inactive: > 76.9 µM
9,COc1ccc(NC(=O)c2cccc(-n3cnnn3)c2)cc1,inactive: > 76.9 µM
10,O=C(NCc1cccs1)C1CCCN(c2nc3ccccc3o2)C1 (stereo not given),inactive: > 76.9 µM
11,O=C(Cc1ccccc1)Nn1cnc2ccccc21,inactive: > 76.9 µM
12,O=C(Nc1nc(-c2ccc(S(=O)(=O)N3CCCCCC3)cc2)cs1)c1cccs1,active: 13.9 µM
13,Cc1cc(O)c(-c2n[nH]c3c2C(c2cccc(O)c2)N(Cc2cccnc2)C3=O)cc1Cl (stereo not given),inactive
14,Cc1cc(C)n(C(=O)c2cc3ccccc3c(=O)o2)n1,inactive: > 76.9 µM
15,O=C(O)c1ccc2nc(C(F)(F)F)[nH]c2c1,inactive: > 76.9 µM
16,Cc1ccc(-c2nnn(CC(=O)N(Cc3cccs3)C(C(=O)NC3CCCC3)c3ccco3)n2)o1 (stereo not given),inactive: > 76.9 µM
17,Cc1cc(C(=O)OCC(=O)NC(=O)NC(C)(C)C)c(C)o1,inactive: > 76.9 µM
18,CC1CCCC(C)N1C(=O)CN1C(=O)C(C)(C)Oc2ccc(C(=O)NC3CCCCC3)cc21 (stereo not given),inactive: > 76.9 µM
19,CCOC(=O)c1ccc(NC(=O)c2cc(S(=O)(=O)N3CCOCC3)ccc2O)cc1,inactive: > 76.9 µM
20,Cc1nc(SCC(=O)Nc2cc(C)on2)c2c(C)c(C)sc2n1,inactive: > 76.9 µM
21,CCOc1ccc(/C(O)=C2/C(=O)C(=O)N(CCOCCO)C2c2ccc(F)cc2)cc1 (stereo not given),inactive: > 76.9 µM
22,COc1ccc(NC(=O)CSc2nc3ccccc3c(=O)n2CCNC(C)=O)cc1,inactive: > 76.9 µM
23,Cc1nc(N2CCc3ccccc32)[nH]c(=O)c1CCC(C)C,inactive: > 76.9 µM

row,SMILES,Potency
1,CCOC(=O)c1cccc(NC(=O)CSc2nnc(-c3cccnc3)n2CC)c1,inactive: > 76.9 µM
2,CCOC(=O)c1c(C)c(C(=O)NC2CCCCCC2)c(C)n1C,inactive: > 76.9 µM
3,Cc1cc2n(n1)C(c1ccc3c(c1)OCO3)Nc1c(C)cccc1-2 (stereo not given),inactive: > 76.9 µM
4,COc1ccc(-n2nnnc2SCC(=O)N2CCCC2)cc1OC,inactive: > 76.9 µM
5,Cc1cccc(NC(=O)c2snc3c(=O)[nH]cnc23)c1,inactive: > 76.9 µM
6,COc1cc(CO)cc(Br)c1OCC(=O)N1CCCCC1,inactive: > 76.9 µM
7,Nn1c(SC/C=C/c2ccccc2)nnc1-c1ccccn1,inactive: > 76.9 µM
8,Cc1ccc2c(c1)cc(CN(Cc1ccc3c(c1)OCO3)S(=O)(=O)c1ccccc1)c1nnnn12,inactive: > 76.9 µM
9,CN(C)CCNC(=O)c1cc2ccccc2oc1=O,inactive: > 76.9 µM
10,c1ccn2cc(CSC3=NCCS3)nc2c1,inactive: > 76.9 µM
11,O=C(Cc1ccccc1)NCc1nc2ccccc2[nH]1,inactive: > 76.9 µM
12,Cc1cc(C)c2c(n1)nn1c(N3CCN(Cc4ccccc4)CC3)cc(C)nc21,inactive: > 76.9 µM
13,O=C(Cc1ccc(Cl)cc1)NCC(=O)N1CCCC1,inactive: > 76.9 µM
14,CC(=O)Nc1ccc(-c2nn3c(C)nnc3s2)cc1C,inactive: > 76.9 µM
15,CCn1c(=O)c(C(=O)NCCc2ccccc2)c(O)c2ccccc21,inactive: > 76.9 µM
16,O=C(CCN1C(=O)C2(OCCO2)c2ccccc21)c1ccccc1,inactive: > 76.9 µM
17,c1ccc(-n2nnnc2N2CCOCC2)cc1,inactive: > 76.9 µM
18,CCOc1ccc(NC(=O)c2oc3ccccc3c2NC(=O)C2CC2)cc1,inactive: > 76.9 µM
19,O=C1CSC(c2ccccn2)N1Cc1cn2ccccc2n1 (stereo not given),inactive: > 76.9 µM
20,CC(C)C[C@H](NC(=O)Nc1ccc(S(N)(=O)=O)cc1)C(=O)O,inactive: > 76.9 µM
21,O=C(CN1C(=O)COc2ccc(Cl)cc21)Nc1ccc2c(c1)OCCO2,inactive: > 76.9 µM
